Results as given in PubChem BioAssay AID1347120 (National Center for Advancing Translational Sciences (NCATS), 2019).
In all, about 390,000 compounds went through this assay and about 930 (0.24%) were called active. The inconclusive results got no clear call from the source; some entries with a clear call stand among them for comparison. Calls follow the shape of the dose curve; as a rule, active = well fitted activation curve with a large enough effect; inconclusive = small, poorly fitted or top-dose-only effect; inactive = no such curve, though single readings can be large or run the other way. Where the call is inconclusive, the potency comes from a doubtful curve fit.
Potency is read from the fitted curve at half-maximal effect; tags tell the direction and shape of the fitted curve.

Test: qHTS for Suppressors of FUS Proteinopathy: Primary screen using FUS-linked yeast assay; also: nearly all actives have a fitted effect of over 55% in size;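 as to growth rescue (activation): plate controls were DMSO vehicle for no effect and reference control for full effect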
Conditions: S. cerevisiae FUS-expressing, OD600, 24 h; Potency: growth rescue; growth rescue (activation): at 76.6 µM (top of the series)
In short: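 Quantitative HTS measuring growth restoration of FUS-toxic yeast. Galactose-induced cells (OD 0.005) were exposed 24hr at 30C to compounds at several concentrations, then absorbance at 600 nm was recorded.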
For `CCC(=O)N1CCc2cc(Br)c(S(=O)(=O)NC3CCN(Cc4ccccc4)CC3)cc21`, the “growth rescue (activation)” value was inactive: -0.846%. With `CC(=O)Nc1cc(-c2ccc(S(C)(=O)=O)cc2)cn2c(-c3ccc(F)c(Cl)c3)cnc12` the Potency was inconclusive: 35.5 µM [activator, single point]. In the case of `CC(C)(CC(=O)N1CCN(c2ccc(Cl)cc2)CC1)CC1=NS(=O)(=O)c2ccccc2N1`, the Potency is reported as inconclusive: 50.1 µM [activator, single point]. For `O=C(NCCSc1c(-c2ccccc2)[nH]c2ccccc12)c1cc2ccccc2oc1=O`, the “growth rescue (activation)” value was inactive: 30.8%. With `C=CCn1c(C)cc(-c2csc(NCC)n2)c1C` the Potency was inconclusive: 50.1 µM [activator, partial curve, poor fit]. In the case of `CCC1CN(C(=O)N2CCC(C(=O)Nc3ccccc3F)CC2)c2ccccc2O1` (stereo unspecified), the Potency is reported as inconclusive: 10 µM [activator, partial curve]. For `Cc1cc(C2=NNC(=NC3CC3)SC2)c(C)n1-c1ccccc1`, the Potency was inconclusive: 25.1 µM [activator, single point]. With `CCN(CC)S(=O)(=O)c1ccc(C)c(NC(=O)COc2ccc(Cl)cc2Br)c1` the “growth rescue (activation)” value was inactive: 19.6%. For `Nc1c(C(=O)Nc2ccc(OC(F)(F)F)cc2)sc2nc(-c3ccncc3)ccc12`, the “growth rescue (activation)” value was inactive: 4.23%. In the case of `COc1ccc(-c2nnc(SCC(=O)Nc3ccc(S(=O)(=O)Nc4nccs4)cc3)n2-c2ccc(OC)cc2)cc1`, the Potency is reported as inconclusive: 28.2 µM [activator, partial curve, poor fit]. With `CCN(c1ccccc1)S(=O)(=O)c1ccc(C(=O)N2CCN(c3ccccc3F)CC2)cc1` the Potency was inconclusive: 22.4 µM [activator, single point]. With `Cc1ccc(CN2CCCN(CC(=O)Nc3ccc(C)cc3C)S2(=O)=O)cc1` the Potency was inconclusive: 50.1 µM [activator, partial curve, poor fit]. In the case of `O=C(COc1c(Br)cc(Br)c2cccnc12)Nc1ccccc1F`, the “growth rescue (activation)” value is reported as inactive: -14.4%. For `COC(=O)[C@]12C[C@H](CC(=O)NCCCCc3ccccc3)C(=O)N(CCc3ccc(OC)c(OC)c3)C1=C[C@H](C(C)C)O[C@@H]2C1CC1`, the Potency was inconclusive: 20 µM [activator, partial curve, poor fit]. In the case of `O=C1NC[C@H](Cc2ccccc2)N(C[C@@H]2CCCN2C[C@H](Cc2ccc(O)cc2)N2C[C@H](Cc3ccccc3)N(CCc3ccccc3)C(=O)C2=O)C1=O`, the Potency is reported as inconclusive: 11.2 µM [activator, partial curve]. With `Cc1ccc(CNc2ccc3c(c2)OCO3)cc1` the Potency was inconclusive: 7.08 µM [activator, full curve]. For `COC(=O)CSc1nnc(-c2ccc(NS(=O)(=O)c3c(C(C)C)cc(C(C)C)cc3C(C)C)cc2)o1`, the Potency was inconclusive: 14.1 µM [activator, partial curve]. With `Cc1csc(NC(=O)CCc2nc3ccccc3s2)n1` the Potency was inconclusive: 50.1 µM [activator, single point]. With `O=C(c1ccccc1)c1c(-c2ccccc2)[nH]n(-c2ccccc2)c(=O)c1=O` the Potency was inconclusive: 39.8 µM [activator, single point]. With `CCOc1ccc(C(=O)NC(=S)N(Cc2ccccc2)Cc2ccccc2)cc1` the “growth rescue (activation)” value was inactive: 50.5%. In the case of `CCOc1ccccc1CNC(=O)c1cc2n(n1)CCCN(Cc1ccc(C)cc1)C2=O`, the Potency is reported as inconclusive: 28.2 µM [activator, single point]. With `CCN(CC)S(=O)(=O)c1ccc(C(=O)OCn2nnc3ccccc3c2=O)cc1` the “growth rescue (activation)” value was inactive: 4.92%. For `Cc1ccc(-c2nnc(N3CCN(C(=O)COc4ccccc4)CC3)c3ccccc23)cc1`, the “growth rescue (activation)” value was inactive: 35.6%. For `CN(C)CC(=O)N[C@H]1C[C@@H]2O[C@@H](CO)CC[C@@H]2O[C@@H]1CCc1ccc(C2=CCCCC2)cc1`, the “growth rescue (activation)” value was inactive: 19.8%. For `Cc1cc(C)n(C(=O)c2ccc(S(=O)(=O)NCC3CCCO3)cc2)n1` (stereo unspecified), the Potency was inconclusive: 6.31 µM [activator, partial curve, poor fit]. In the case of `CCc1cccc(-n2c(C)nc3c(cnn3-c3ccc(C)c(C)c3)c2=O)c1`, the “growth rescue (activation)” value is reported as inactive: 11%. With `Cc1cc(OCc2cc(C(=O)N(C)CCOc3ccccc3)no2)cc(C)c1Cl` the Potency was inconclusive: 8.91 µM [activator, partial curve, poor fit]. For `CCOc1ccc(/C=N/NC(=O)c2nnn(-c3nonc3N)c2COc2ccc(F)cc2)cc1`, the Potency was inconclusive: 31.6 µM [activator, single point]. For `COc1ccc([C@H]2C[C@@H](n3cc(-c4ccc(F)cc4)nn3)[C@H](O)CN2C(=O)C2CCCCC2)cc1`, the “growth rescue (activation)” value was inactive: 7.26%. In the case of `O=S(=O)(c1ccc2c(c1)OCO2)N1CCN(c2nnnn2-c2ccccc2)CC1`, the “growth rescue (activation)” value is reported as inactive: 16%. For `CCOc1ccc(C(=O)N/N=C/c2ccc(-c3ccc(S(=O)(=O)Nc4ncccn4)cc3)o2)cc1`, the Potency was inconclusive: 22.4 µM [activator, partial curve, poor fit]. In the case of `Cc1ccc(C)c(CNC(=O)c2ccc3c(c2)nc2n3CCCCC2)c1`, the “growth rescue (activation)” value is reported as inactive: -8.15%. With `O=C(Cn1c(=O)oc2cc(S(=O)(=O)N3CCCCCC3)ccc21)NCc1ccccc1Cl` the Potency was inconclusive: 22.4 µM [activator, single point]. In the case of `O=C(Nc1ccc(S(=O)(=O)N2CCOCC2)cc1)C1CCN(S(=O)(=O)c2ccc(F)cc2)CC1`, the Potency is reported as inconclusive: 39.8 µM [activator, single point]. For `Cc1cnc(C(=O)NCCc2ccc(Cl)cc2)cn1`, the Potency was inconclusive: 25.1 µM [activator, partial curve, poor fit]. For `Cc1ccc(C)c2c1cc(C)c1nnc(SCC(=O)c3cccs3)n12`, the “growth rescue (activation)” value was inactive: -12.5%. In the case of `CC(C)(C)OC(=O)NCCCCCNC(=O)c1[nH]cnc1C(=O)Nc1ccc(Cl)cc1`, the Potency is reported as inconclusive: 20 µM [activator, single point]. With `COc1ccc(C2CC(c3cccs3)=NN2C(=O)CSC2=NCCS2)cc1` (stereo unspecified) the Potency was active: 35.5 µM. For `COc1cccc(/C=C2\Oc3cc(OCC(=O)N4Cc5ccccc5C[C@H]4C(=O)O)ccc3C2=O)c1`, the Potency was active: 28.2 µM. In the case of `CCOc1cc(/C=N/NC(=O)c2ccccc2-n2cccc2)ccc1O`, the “growth rescue (activation)” value is reported as inactive: -11.3%. For `COc1cccc(-c2cnc3c(NC=O)cc(-c4ccc(S(C)(=O)=O)cc4)cn23)c1`, the Potency was inconclusive: 28.2 µM [activator, single point]. With `COC(=O)[C@@]1(Cc2ccc(OC)cc2)[C@H]2c3cc(C(=O)N4CCCC4)n(Cc4ccc(C)c(F)c4F)c3C[C@H]2CN1C(=O)c1ccccc1` the Potency was inconclusive: 11.2 µM [activator, partial curve, poor fit]. In the case of `Cc1cccc(-n2c(C)cc(/C=N/NC(=O)c3cccc([N+](=O)[O-])c3C)c2C)c1`, the Potency is reported as inconclusive: 25.1 µM [activator, single point]. With `Cn1ccc2cc3c(cc21)CCN3C(=O)Nc1cccnc1` the Potency was inconclusive: 31.6 µM [activator, partial curve, poor fit]. With `CCOC(=O)c1ccc2c(c1)N(C(CC)C(=O)Nc1ccccc1OC)C(=O)c1ccccc1S2` (stereo unspecified) the Potency was inconclusive: 7.94 µM [activator, partial curve, poor fit]. In the case of `C=CCOC(=O)C1=C[C@@H](c2cn(C(C)=O)c3ccccc23)C[C@@H](OCc2ccc(CO)cc2)O1`, the Potency is reported as inconclusive: 31.6 µM [activator, single point]. For `CC(=O)c1c(C)[nH]c(C(=O)OCc2cccc(Cl)c2)c1C`, the “growth rescue (activation)” value was inactive: 6.79%. With `CC(=O)Oc1ccc(C(=O)[C@H]2[C@H]3C(=O)N(c4ccc(C)cc4C)C(=O)[C@H]3[C@@H]3C=CC=NN32)cc1` the Potency was inconclusive: 35.5 µM [activator, partial curve, poor fit]. For `COc1cccc(NC(C)C(=O)Nc2cc([N+](=O)[O-])ccc2Cl)c1` (stereo unspecified), the “growth rescue (activation)” value was inactive: 12.9%. For `O=c1oc2cc(O)ccc2cc1-c1nc2c(s1)CCc1ccccc1-2`, the Potency was inconclusive: 12.6 µM [activator, partial curve, poor fit]. In the case of `COc1ccc(-c2csc3nc(-c4cccnc4)nc(N4CCC(C(N)=O)CC4)c23)cc1OC`, the Potency is reported as inconclusive: 20 µM [activator, partial curve]. In the case of `COc1ccc(OC)c(-c2csc(NC(=O)Cc3cc(OC)c(OC)c(OC)c3)n2)c1`, the “growth rescue (activation)” value is reported as inactive: 11.8%. For `CCc1ccc(NC(=O)C2=CC(c3ccc(OC)cc3)=NS(=O)(=O)N2C)cc1`, the Potency was inconclusive: 31.6 µM [activator, single point]. In the case of `COC(=O)[C@@]1(Cc2ccccc2)[C@H]2C(=O)N(Cc3ccccc3)C(=O)[C@H]2[C@H]2CN=C(SCc3ccc(C#N)cc3)N21`, the Potency is reported as inconclusive: 50.1 µM [activator, single point]. In the case of `Cc1nc(Cc2ccc(OC(C)C)cc2)[nH]c(=O)c1CC(=O)O`, the “growth rescue (activation)” value is reported as inactive: -12.7%. With `Cn1c(=O)cc(OCC(=O)NCc2cccs2)c2ccccc21` the “growth rescue (activation)” value was inactive: 4.77%. In the case of `O=C(CSc1nnc(Cc2cccs2)n1CCc1ccccc1)N1CCCc2ccccc21`, the Potency is reported as inconclusive: 39.8 µM [activator, partial curve, poor fit]. For `CC(C)c1ccccc1NC(=O)C1CN(S(=O)(=O)c2ccccc2)CCN1S(=O)(=O)c1ccccc1` (stereo unspecified), the Potency was inconclusive: 22.4 µM [activator, partial curve]. For `CCOc1cc(/C=C2\COc3ccccc3C2=O)cc(Br)c1OCC(=O)N(C)C`, the Potency was inconclusive: 44.7 µM [activator, single point]. With `O=C(Nc1ccc(F)cc1)N1CCC(c2nc3c(nnn3Cc3cccc(Cl)c3)c(=O)[nH]2)CC1` the Potency was inconclusive: 22.4 µM [activator, single point]. With `COc1cccc(/C=N/NC(=O)c2cccc([N+](=O)[O-])c2)c1OS(=O)(=O)c1ccc(C)cc1` the Potency was inconclusive: 44.7 µM [activator, partial curve, poor fit].
